Measured values taken from PubChem BioAssay AID686992 (Broad Institute, 2013).
Screen size: about 260,000 compounds; about 960 (0.37%) were called active. This list was built around the results that the source calls inconclusive (neither active nor inactive); the mix of calls is not that of the screen.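 The calls were made as follows: active = mean E-selectin-positive cell signal at least 10% of the positive control, reached in at least 60% of replicates, without over 20% cell loss; inconclusive = no rule given, readout overlaps actives, possibly toxicity-flagged; inactive = the rest, including those meeting only one limit.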

biological target: E-selectin (Homo sapiens) (UniProt P16581); assay: inducers of endothelial E-selectin expression – imaging, HUVEC, immunofluorescence imaging, single point, primary screen (AID 686992); conditions: at 7.58 µM, stronger effect = higher value, normalized: neutral wells 0, TNF-alpha wells 100;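 also: signal is the percent of cells scored E-selectin positive by PE staining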
UniProt P16581, sequence (P16581 whole entry, looked up): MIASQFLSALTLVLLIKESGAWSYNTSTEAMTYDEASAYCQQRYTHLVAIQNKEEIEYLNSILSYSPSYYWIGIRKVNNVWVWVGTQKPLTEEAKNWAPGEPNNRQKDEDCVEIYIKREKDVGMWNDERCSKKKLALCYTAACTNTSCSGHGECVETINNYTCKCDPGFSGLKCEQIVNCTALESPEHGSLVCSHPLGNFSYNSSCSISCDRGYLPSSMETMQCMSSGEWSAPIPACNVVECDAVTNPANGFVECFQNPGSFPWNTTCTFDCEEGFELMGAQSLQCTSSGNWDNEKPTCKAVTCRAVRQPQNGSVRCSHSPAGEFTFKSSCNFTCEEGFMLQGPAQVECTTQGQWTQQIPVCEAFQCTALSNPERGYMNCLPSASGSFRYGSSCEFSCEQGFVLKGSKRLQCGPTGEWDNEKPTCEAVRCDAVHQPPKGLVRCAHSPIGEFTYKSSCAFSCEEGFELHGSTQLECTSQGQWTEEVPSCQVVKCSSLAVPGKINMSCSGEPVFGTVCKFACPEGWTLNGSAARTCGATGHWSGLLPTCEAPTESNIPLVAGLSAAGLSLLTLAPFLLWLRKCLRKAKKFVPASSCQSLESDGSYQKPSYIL
In short: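 Read-out: % PE-positive cells | Test system: HUVEC | Doses: One compound dose added by pin transfer | Buffer or medium: EGM-2 over gelatin coat | Signal: Immunofluorescence imaging | Benchmarks: TNF-alpha, DMSO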

| Compound | activation |
| --- | --- |
| COc1cc(OC)cc(C(=O)NC(C)c2ccc(Br)cc2)c1 (stereo unspecified) | inactive: -0.149% |
| OCC1OC(n2cnc3c(NC4CCCC4)ncnc32)C(O)C1O (stereo unspecified) | inconclusive: 41.4% |
| C=CCc1cc(Cl)ccc1OCCOCCNC(C)(C)C | inconclusive: 61.1% |
| O=C(CN1CCOCC1)Nc1ccc(OC(F)(F)F)cc1 | inactive: 0.054% |
| CC(C)Oc1ccc(C(=O)Nc2c3c(nn2C(C)(C)C)CS(=O)(=O)C3)cc1 | inconclusive: 46.4% |
| C[C@H]1CN([C@@H](C)CO)C(=O)c2cc(NC(=O)CCN3CCOCC3)ccc2O[C@@H]1CN(C)S(=O)(=O)c1ccc(Cl)cc1 | inconclusive: 151% |
| CS(=O)(=O)NNC(=O)c1csc(Cc2c(Cl)sc3ccc(Cl)cc23)n1 | active: 63.5% |
| O=C(NC(=O)c1ccccc1)Nc1ccccc1 | inconclusive: 61.6% |
| CC1=C(/C=C/C(C)=C/C=C/C(C)=C/C(=O)O)C(C)(C)CCC1 | inconclusive: 29.4% |
| OC(c1cccc(Cl)c1)c1ncc(-c2ccc(Oc3ccccc3)cc2)[nH]1 (stereo unspecified) | inconclusive: 60.5% |
| COc1ccc(C(=O)N2CCOC2CNC(=O)C(=O)NCc2ccccn2)cc1 (stereo unspecified) | inconclusive: 113% |
| CC1=CCC2C(=O)N(c3ccccc3OC(=O)c3ccccc3F)C(=O)C2C1 (stereo unspecified) | inconclusive: 58.7% |
| COc1ccc(NC(=O)N(C)C[C@@H]2Oc3ccc(NC(=O)Cn4cnnn4)cc3C(=O)N([C@H](C)CO)C[C@H]2C)cc1 | inactive: -3.95% |
| Cc1cccc(CN2CCCC(C(=O)Nc3ccc(-c4cscn4)cc3)C2)c1 (stereo unspecified) | inconclusive: 57.6% |
| c1ccc(CCNc2cc(-c3ccc4ccccc4c3)nc3ccnn23)nc1 | inconclusive: 31.1% |
| COc1cc(CC(=O)Nc2cccc(C(F)(F)F)c2)cc(OC)c1OC | inconclusive: 26.5% |
| COCC(=O)N1CCC2(CC1)CN(C(=O)Cc1ccccc1)[C@H](CO)c1c2c2ccc(OC)cc2n1C | inactive: -0.414% |
| C[C@H]1CN([C@@H](C)CO)C(=O)c2cc(C#Cc3cccc(F)c3)cnc2O[C@@H]1CN(C)C(=O)C1CC1 | inconclusive: 107% |
| C[n+]1ccc(C(=O)N/N=C/c2ccco2)cc1 | active: 139% |
| CCCCc1c(-c2ccc(F)cc2F)ncn1CCc1ccccc1OC | inactive: -0.237% |
| O=C(NCc1ccccc1)c1cccc2c1C(=O)c1ccc(/C=C/c3ccccc3)cc1S2(=O)=O | inconclusive: 41% |
| CN1OC[C@@H]2CN[C@H](c3cccc(-c4ccccc4)c3)C[C@@H]21 | inconclusive: 75.8% |
| Cc1nn(CCS(=O)(=O)c2ccc(Cl)cc2)c(C)c1Br | active: 78.4% |
| C[C@@H]1CN([C@@H](C)CO)C(=O)c2cc(NS(=O)(=O)c3ccc(F)cc3)ccc2O[C@@H](C)CCCCO[C@@H]1CN(C)C(=O)Cc1ccccc1 | inactive: -0.107% |
| CN(C)CCN1CCN(C2CN(Cc3cn(Cc4ccc(C(F)(F)F)cc4)nn3)S(=O)(=O)C2)CC1 (stereo unspecified) | inconclusive: 148% |
| COc1ccc(CN(C)C[C@H]2Oc3ccc(NC(=O)c4ccncc4)cc3C(=O)N([C@H](C)CO)C[C@@H]2C)cc1 | active: 47.5% |

| Compound | activation |
| --- | --- |
| Cc1nc([N+](=O)[O-])cn1CC(=O)c1ccc(Cl)cc1 | inconclusive: 42.4% |
| CC(C)NC(=O)Nc1cccc2c1O[C@H](CN(C)Cc1ccc(Cl)c(Cl)c1)[C@H](C)CN([C@@H](C)CO)C2=O | active: 29.6% |
| COc1ccc(NC(=O)CCCn2c(=S)[nH]c3ccccc3c2=O)cc1 | active: 90.3% |
| C[C@@H]1CN([C@H](C)CO)C(=O)Cc2cc(NS(C)(=O)=O)ccc2O[C@@H]1CN(C)S(C)(=O)=O | inconclusive: 29% |
| CCOCCCNC(=O)c1ccc2c(c1)N(CC)C(=O)c1ccccc1S2=O (stereo unspecified) | inconclusive: 44.4% |
| COCC(=O)Nc1ccc2c(c1)OC[C@H](C)N(Cc1cncnc1)C[C@H](C)[C@H](OC)CN(C)C2=O | inactive: 0.938% |
| CCOC(=O)C1(CC)NC(c2ccco2)C2C(=O)N(C)C(=O)C21 (stereo unspecified) | inconclusive: 36.5% |
| Cc1ccc(-c2cc(C(=O)N3CCCC(C(F)(F)F)C3)c3ccccc3n2)o1 (stereo unspecified) | inconclusive: 44.9% |
| C[C@@H]1CN([C@@H](C)CO)C(=O)c2cc(C3=CCCCC3)cnc2O[C@H]1CN(C)C(=O)NC1CCCC1 | active: 117% |
| O=C(Nc1ccc(F)c([N+](=O)[O-])c1)c1cccs1 | inconclusive: 52.1% |
| C[C@@H]1CN([C@H](C)CO)C(=O)Cc2cc(NC(=O)CCCN(C)C)ccc2O[C@H]1CN(C)S(=O)(=O)c1ccccc1 | inconclusive: 32.7% |
| CC1CCCN(Cc2c(O)ccc3c4c(c(=O)oc23)CCCC4)C1 (stereo unspecified) | inconclusive: 28.6% |
| CC(C)Cc1nnc(N)s1 | inconclusive: 67.2% |
| CCN(CC)c1ccc2nc3c4ccccc4c(=O)cc-3oc2c1 | active: 203% |
| CCc1nnc(NS(=O)(=O)c2ccc(NC(=O)c3ccccc3C)cc2)s1 | inactive: -0.071% |
| COc1ccc(C(=O)Nc2ccc3c(c2)OCCO3)cc1[N+](=O)[O-] | active: 46.2% |
| O=C(C[C@H]1CC[C@H]2[C@@H](COC[C@@H](O)CN2C(=O)c2ccc(F)cc2)O1)Nc1ccc(-c2ccccc2)cc1 | inactive: 0.282% |
| CCCCN(CC)CCNC(=O)c1cc2c(=O)n(CC)c3ccccc3c2s1 | inconclusive: 31.5% |
| O=C(NCc1ccc(F)cc1)c1cc2c(s1)CS(=O)(=O)C2 | inconclusive: 32.6% |
| CC(=O)C1=C(O)C(=O)N(c2ccc(O)cc2)C1c1ccc(F)cc1 (stereo unspecified) | inconclusive: 26.4% |
| O=C([C@@H]1[C@@H](CO)[C@@H]2Cn3c(ccc(-c4ccncc4)c3=O)[C@@H]2N1CCC(F)(F)F)N1CCCCC1 | inactive: -0.081% |
| Nc1ccc(C(=O)N2N=C(c3ccc(F)cc3)CC2(O)C(F)(F)F)cc1 (stereo unspecified) | inconclusive: 36.2% |
| Cc1ccc(NC(=O)[C@@H](Cc2ccccc2)NC(=O)[C@H]2O[C@@H](n3ccc(=O)[nH]c3=O)[C@H](O)[C@@H]2O)cc1C | inconclusive: 68.7% |
| CN(C)/N=C/c1cn(-c2ccccc2)nc1-c1cccnc1 | inconclusive: 53.4% |
| CCCCN(C(=O)CC1CCCC1)c1c(N)n(CCCC)c(=O)[nH]c1=O | inconclusive: 85.7% |
| CC(C)(O)CN(C(=O)C(c1ccccc1)c1ccccc1)C1CCCCC1 | inactive: -0.519% |

| Compound | activation |
| --- | --- |
| C[C@@H]1CN([C@@H](C)CO)C(=O)c2cc(NC(=O)C3CCCCC3)ccc2O[C@@H](C)CCCCO[C@H]1CN(C)C(=O)C1CCCCC1 | inactive: 0.0565% |
| COc1ccc(S(=O)(=O)N2C[C@@H](O)COC[C@@H]3O[C@H](CC(=O)NCCN4CCCCC4)CC[C@H]32)cc1 | inactive: 0.027% |
| O=C([C@@H]1[C@@H](CO)[C@@H]2Cn3c(ccc(-c4ccncc4)c3=O)[C@@H]2N1Cc1cocn1)N1CCCCC1 | inactive: -0.009% |
| COc1ccc(CCNC(=O)c2cc(-c3ccccc3)c(N3CCOCC3)s2)cc1OC | inconclusive: 36.7% |
| NS(=O)(=O)c1ccc(CNS(=O)(=O)c2ccc(Cl)nc2)cc1 | inconclusive: 64.7% |
| O=C(NC(c1ccc(Cl)cc1)c1cc(Cl)c2cccnc2c1O)c1cccnc1 (stereo unspecified) | inconclusive: 92.3% |
| Cc1ccc[n+](C(C)C(=O)c2ccc(-c3ccccc3)cc2)c1 (stereo unspecified) | inconclusive: 28.9% |
| COc1ccc(CN(C)C[C@@H]2Oc3ccc(N(C)C)cc3CC(=O)N([C@@H](C)CO)C[C@@H]2C)cc1 | inconclusive: 126% |
| O=C(NC1CCCC1)N1CCCCN2[C@H](CO)[C@H](c3ccc(-c4ccccc4)cc3)[C@H]2C1 | inactive: 0.0765% |
| COc1cc(/C=C2/SC(=S)N(Cc3ccccc3)C2=O)cc(Cl)c1O | inconclusive: 33.3% |
| COc1ccc(/C=N/n2cnnc2)cc1Br | inactive: 0.346% |
| COc1ccc(/C=C/C(=O)NC(=S)Nc2ccc(S(N)(=O)=O)cc2)cc1OC | inactive: 0.122% |
| COc1ccccc1CNC(=O)COC(=O)c1ccccc1SCC(=O)N1CCCC1 | inconclusive: 33.8% |
| COc1ccc(Cl)cc1NC(=O)c1cccc(NC(=O)CCC(=O)O)c1 | inactive: -0.453% |
| COc1ccc(-c2nnc3n2CCCCC3)cc1OC | active: 35.5% |
| COc1cccc(NC(=O)C2C3C=CC4(O3)C2C(=O)N(CCCN2CCCCC2)C4C(=O)NC2CCCCC2)c1 (stereo unspecified) | active: 29.1% |
| O=C(c1ccc([N+](=O)[O-])cc1)N(Cc1ccccc1)Cc1ccccc1 | inactive: -2.64% |
| COC(=O)C[C@@H]1C=C[C@H](NS(=O)(=O)c2ccccc2F)[C@H](CO)O1 | inactive: 0.556% |
| O=C(CSC(=S)N1CCCC1)c1ccccc1 | inactive: -0.247% |
| Cc1cc(C(=O)Nc2cccc3c2O[C@H](CN(C)C(=O)NC2CCCCC2)[C@@H](C)CN([C@@H](C)CO)C3=O)n(C)n1 | inconclusive: 183% |
| C[C@@H]1CN([C@H](C)CO)C(=O)c2cc(NC(=O)CCN3CCOCC3)ccc2O[C@H]1CN(C)C(=O)Nc1ccc(C(F)(F)F)cc1 | inconclusive: 124% |
| COc1ccc(S(=O)(=O)Nc2ccc3c(c2)CC(=O)N([C@@H](C)CO)C[C@H](C)[C@H](CN(C)C(=O)NC2CCCCC2)O3)cc1 | inconclusive: 29.4% |
| O=C(C[C@H]1CC[C@@H]2[C@H](COC[C@@H](O)CN2Cc2ccccc2)O1)N[C@H]1CCN(Cc2ccccc2)C1 | inconclusive: 56.4% |
| COCC(=O)N1CC[C@@H]2[C@@H](CO)N(C)c3ccc(-c4ccc(F)cc4)cc3[C@@H]21 | inconclusive: 61.2% |
